PMC4336329 (PLoS ONE, 2015)
Screen size: about 310,000 compounds; about 14,000 (4.5%) showed an effect of 50% or more. Effects have a minus sign here. Some of the results follow.

Biological target: human ether-à-go-go-related gene (hERG) potassium channel (human, UniProt Q12809)
Assay: primary screen, population patch clamp on CHO cells stably expressing hERG
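Further: peak tail current of the secondary pulse compared with the same well before compound.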

Chain of human ether-à-go-go-related gene (hERG) potassium channel (Q12809 whole entry, looked up): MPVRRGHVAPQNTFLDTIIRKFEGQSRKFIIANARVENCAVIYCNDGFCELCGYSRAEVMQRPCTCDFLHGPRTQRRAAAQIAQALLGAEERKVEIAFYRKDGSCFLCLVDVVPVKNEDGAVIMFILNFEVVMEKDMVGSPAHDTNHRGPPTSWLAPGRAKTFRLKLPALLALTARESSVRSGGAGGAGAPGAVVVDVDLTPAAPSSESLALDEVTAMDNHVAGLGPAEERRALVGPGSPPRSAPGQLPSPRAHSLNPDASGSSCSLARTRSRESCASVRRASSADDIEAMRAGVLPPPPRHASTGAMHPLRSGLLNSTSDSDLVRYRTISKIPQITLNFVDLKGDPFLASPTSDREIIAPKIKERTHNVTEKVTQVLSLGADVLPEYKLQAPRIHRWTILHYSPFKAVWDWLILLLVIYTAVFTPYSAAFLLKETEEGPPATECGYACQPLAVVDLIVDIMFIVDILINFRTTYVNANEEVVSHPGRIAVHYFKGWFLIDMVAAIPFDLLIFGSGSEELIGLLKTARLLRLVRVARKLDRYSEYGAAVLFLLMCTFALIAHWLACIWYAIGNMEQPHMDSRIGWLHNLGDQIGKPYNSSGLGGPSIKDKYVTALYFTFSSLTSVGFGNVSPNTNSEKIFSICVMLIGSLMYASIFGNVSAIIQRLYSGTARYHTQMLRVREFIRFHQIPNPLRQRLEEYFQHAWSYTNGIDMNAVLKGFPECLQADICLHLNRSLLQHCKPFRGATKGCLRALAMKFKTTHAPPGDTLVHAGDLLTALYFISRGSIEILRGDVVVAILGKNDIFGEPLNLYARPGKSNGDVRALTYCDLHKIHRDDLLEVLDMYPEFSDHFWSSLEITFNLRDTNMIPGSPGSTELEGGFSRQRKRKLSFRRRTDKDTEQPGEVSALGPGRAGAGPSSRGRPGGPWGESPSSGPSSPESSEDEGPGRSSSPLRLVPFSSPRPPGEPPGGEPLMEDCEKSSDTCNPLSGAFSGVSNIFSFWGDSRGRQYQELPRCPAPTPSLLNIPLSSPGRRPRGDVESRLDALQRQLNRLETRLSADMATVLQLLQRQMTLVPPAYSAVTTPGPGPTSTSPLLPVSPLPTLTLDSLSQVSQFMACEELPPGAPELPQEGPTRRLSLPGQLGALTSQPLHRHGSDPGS

Structure (SMILES) | hERG current change (%, negative = inhibition) at 10uM [%]
O=C(COC(=O)C1CC(O)CN1S(=O)(=O)c1ccccc1[N+](=O)[O-])c1ccc[nH]1 (stereo not drawn) | -7.03
O=C(CN1CCOCC1)N/N=C/c1ccc(-c2ccc(C(=O)O)cc2)o1 | -12
COc1ccc(NC(=O)C(c2ccc(C)cc2)N(C)C(=O)CC2NC(=O)NC2=O)cc1 (stereo not drawn) | -4.95
O=C(NCc1ccc(F)cc1)C1CCCN1C(=O)NCc1ccccc1 (stereo not drawn) | -25.8
CCOC(=O)CNc1c(-c2ccc(F)cc2)nc2cnccn12 | -22.4
CCOC(=O)c1ccc(-n2c(N)c(C(=O)NCC3CCCO3)sc2=S)cc1 (stereo not drawn) | -8.81
C=CCN1C(=O)C(Cc2cccc(Cl)c2)S/C1=N/N=C/c1ccco1 (stereo not drawn) | -0.129
COc1ccccc1NC(=O)c1cc(N2C(=O)C3C4CCC(C4)C3C2=O)ccc1Cl (stereo not drawn) | -48.2
Cc1ccc(S(=O)(=O)NC(=O)Nc2cccc([N+](=O)[O-])c2)cc1 | 7.24
CCN(CC)c1ccc(N=Cc2c(O)n(CCC3=CCCCC3)c(=O)[nH]c2=O)cc1 | 15.1
C=C(C(=O)Oc1c(C(C)(C)C)cccc1C(C)(C)C)c1ccccc1 | 15.4
O=C(NCc1cccnc1)c1cccc(OC2CCN(Cc3ccc(CO)o3)CC2)c1 | 18.5
Cc1ccc(S(=O)(=O)N2CCN(C(=O)C3CCN(C(=O)c4ccccc4C)CC3)CC2)cc1C | -12.8
O=C(c1cccc(S(=O)(=O)N2CCOCC2)c1)N(Cc1ccco1)Cc1cccs1 | -68.5
CN(C)C(C)(C)/C=C/C(O)(c1ccccc1)c1ccccc1 | -36.6
O=C(Cn1cnc(S(=O)(=O)N2CCCCC2)c1)N1CCN(c2ccc([N+](=O)[O-])cc2)CC1 | -29.3
O=C(NCc1ccccn1)c1cc(-c2ccc(-c3ccccc3)cc2)nc2ccccc12 | 11.4
Cc1cccc(N(Cc2cc3ccccc3[nH]c2=O)S(=O)(=O)c2ccccc2)c1 | 2.04
Cc1cc(=O)[nH]c(SCc2nc3ncccn3c2Br)n1 | 14.6
CCCN1CCC(NC(=O)Nc2ccc([N+](=O)[O-])cc2)CC1 | -32.2
C[C@H](NC(=O)OC(C)(C)C)c1nnc(SCC(=O)c2ccc(Cl)cc2)o1 | -19.6
Clc1ccc(-c2cc(CSc3cccc(Cl)c3)on2)cc1 | -5.98

Structure (SMILES) | hERG current change (%, negative = inhibition) at 10uM [%]
Cc1nc(N2CCCC2)c2nnn(Cc3ccccc3Cl)c2n1 | 4.29
O=C(C1CCCN(S(=O)(=O)c2ccccc2)C1)N1CCCCC1 (stereo not drawn) | 7.94
CCCn1c(SCC(=O)N2c3ccccc3Sc3ccccc32)nc2c1c(=O)n(C)c(=O)n2C | -17.7
Cc1ccc(C)c(OC(=O)c2ccncc2)c1 | 2.46
c1ccc(C2(CNc3ccccn3)CCCC2)cc1 | -70.3
Cc1ccc(SC[C@H](Cc2ccccc2)N2CCN(CCc3ccccc3)CCC2=O)cc1 | -17.9
O=C(NCC1COc2ccccc2O1)C1CCC(CNc2c(N3CCCCC3)c(=O)c2=O)CC1 (stereo not drawn) | -5.05
CC(C)Cc1nc(SCC(=O)NCC2CCCO2)c2c(=O)n(C)c(=O)n(C)c2n1 (stereo not drawn) | -0.141
CCOC(=O)CNC(=S)N(Cc1ccccc1F)C1CCCCC1 | -73
CCOc1ccccc1N1CC(C(=O)Nc2cc(Cl)ccc2-n2cncn2)CC1=O (stereo not drawn) | -10.3
CC(=O)Nc1nnc(CCN2CCCCC2)s1 | 4.46
COC(=O)c1sc(=S)n(-c2cccc(Cl)c2)c1N | -3.38
O=C(c1cc2c(=O)n3ccccc3nc2s1)N1CCN(c2cccc(Cl)c2)CC1 | -5.97
COc1ccc(NS(=O)(=O)c2cccc(NC(=O)C34CCC(CC3)C4)c2)cc1 | -4.6
Cc1ccc(N2C(=O)NC(NC(=O)C(C)(C)C)(C(F)(F)F)C2=O)cc1 (stereo not drawn) | 2.01
CCC(=O)Nc1cc2c(cc1C(C)=O)OCCO2 | 18.1
CC(OC(=O)CCSc1ccccc1)C(=O)Nc1ccc(S(N)(=O)=O)cc1 (stereo not drawn) | 0.483
CC1(C)CC(c2nc(-c3ccc(Br)cc3)cs2)CCS1.Cl (stereo not drawn) | 4.05
COc1ccc(NC(=O)c2cccc(N3C(=O)C4CC=C(C)CC4C3=O)c2)c(OC)c1 (stereo not drawn) | -6.14
CCOC(=O)N1CCN(C(=O)c2ccccc2NC(=O)c2ccc(OC)cc2)CC1 | 3.96
Cn1ccnc1SCC(=O)c1cc2ccccc2o1 | 4.65
Cc1sc2ncnc(N3CCC(C(=O)NNC(=O)c4ccc(Cl)cc4)CC3)c2c1C | -11.2

Structure (SMILES) | hERG current change (%, negative = inhibition) at 10uM [%]
O=C(CN1C(=O)S/C(=C\c2ccccc2F)C1=O)NC1C=CS(=O)(=O)C1 (stereo not drawn) | 15.9
CC(=O)c1ccc(N(CC(=O)NCCc2ccccc2)C(=O)c2csnn2)cc1 | -52.4
O=C(CSc1nc2ccccc2s1)CSc1nc2ccccc2s1 | -6.73
O=C(C(=O)N1CCOCC1)c1cn(CC(=O)N2CCCCC2)c2ccccc12 | 3.83
CC(C)(C)OC(=O)N[C@H](C(=O)OC(C)(C)C)c1ccccc1 | 16
O=C(NCc1cccnc1)c1cccc(NS(=O)(=O)c2ccc(Br)cc2)c1 | -12.1
COCCNC(=O)COc1ccc(Br)cc1Cl | 10.4
CC(=O)Nc1ccc(S(=O)(=O)N2CCN(C(=O)N3CCCC3)CC2)cc1 | 15.4
CC(C)OCCCNC(=O)c1ccccc1NC(=O)C1=CSCCO1 | 17.4
Cc1c(-c2ccccc2)nc2ccccc2c1C(=O)NCc1cccs1 | -21.2
CSCC[C@H](NC(=O)CCn1nnc2ccccc2c1=O)C(=O)O | 3.85
CCOC(=O)C1CCC(CN(Cc2ccccc2)S(=O)(=O)c2ccc([N+](=O)[O-])cc2)CC1 (stereo not drawn) | -10.2
CC(=O)c1ccc(NC(=O)Cc2cccs2)cc1 | 10.3
CN(CCc1ccccc1)C1CCCN(S(=O)(=O)c2cccc(F)c2)C1 (stereo not drawn) | -48.1
COC(=O)C1=CN(C)C=C(C(=O)OC)C1c1ccc(O)c(OC)c1 | -18
O=C(CN1CCN(Cc2ccccc2Cl)CC1)N/N=C/C=C/c1ccco1 | -68.5
O=C(c1cc(C(=O)N2CCOCC2)c2nc3ccccc3n2c1)c1cc(Cl)cc(Cl)c1O | -18.9
O=C(O)C(=O)O.O=[N+]([O-])c1ccccc1S(=O)(=O)N1CCN(CC2CC=CCC2)CC1 (stereo not drawn) | -38.7
COc1ccc(OCC(=O)N2c3ccc(C)cc3C3CN(C)CCC32)cc1 (stereo not drawn) | -5.12
COc1ccccc1CNc1ncnc2c1nnn2Cc1ccccc1 | 3.85
COc1ccc(NC(=O)Cc2nnc(SCC(=O)c3ccccc3)n2C)cc1 | 7.09
CC(C)C(=O)Nc1csc(C(F)(F)F)c1-c1ccccc1 | -11.3

Structure (SMILES) | hERG current change (%, negative = inhibition) at 10uM [%]
Cc1cc(C)c2c(=O)n(CC(=O)NCCCN3CCOCC3)sc2n1 | 11.4
CCOC1OC2C(CO)OC(n3cnc4c(N)ncnc43)C2O1 (stereo not drawn) | -1.52
Cc1onc(-c2ccccc2Cl)c1C(=O)NCCN1Cc2ccccc2C1=O | -7.66
CCC1(c2ccc(F)cc2)NC(=O)N(CC(=O)Nc2cc(C)on2)C1=O (stereo not drawn) | 8.19
CCS(=O)(=O)NCCc1csc(-c2ccc(OC)c(OC)c2)n1 | 6.6
O=C(O)C1CC=CCC1C(=O)NC1CCCCC1 (stereo not drawn) | 10.1
CC(C)(C)c1ccc(C(=O)NCC(=O)OCC(=O)N2CCCC2)cc1 | 4.86
COc1ccc(Br)cc1CNC(=O)C1CCN(C(=O)N(C)C)CC1 | -6.15
CCCOc1ccc(C(=O)C(CN2CCCC2)c2ccccc2)cc1.Cl (stereo not drawn) | -65.8
COc1ccc(C(=O)Cn2nnc(-c3ccccc3-n3cnnn3)n2)cc1 | -0.555
CCCCc1c(O)c2ccccc2n(CCCC)c1=O | 8.32
O=C(N/N=C/c1ccoc1)c1ccc(Br)cc1 | 9.74
NC(=O)c1ncc(C(F)(F)F)cc1Oc1cccnc1 | 20.5
Cc1cccc(-c2noc(CCCC(=O)NC3CCCC3)n2)c1 | 3.86
CCC(=O)c1cn(CC(=O)Nc2ccccc2)c2ccccc12 | 20.6
COc1ccc(C2CCCN2C(=S)Nc2ccc(C)c(C)c2)cc1OC (stereo not drawn) | -12.8
CCN(CC(=O)Nc1ccc(NC(C)=O)cc1)C(=O)c1ccc(=O)n(C)n1 | 2.47
CCOC(=O)Nc1cccc2ccccc12 | 1.14
CN1/C(=C\C(=O)COC(=O)C2COc3ccccc3O2)C(C)(C)c2ccccc21 (stereo not drawn) | 9.13
CC(C)c1ccc(O)c(NC(=O)c2cccnc2)c1 | 6.07
COc1ccc(/C=[N+](\[O-])C2N(c3ccccc3)C(=S)SC2(C)C)cc1OC (stereo not drawn) | 8.73
